Tests used:
ErbB4 = biological target: T1, ErbB4 (Rattus norvegicus, UniProt Q62956); assay: In vitro phosphorylation of Akt in neonatal rat cardiomyocytes; format: cell-based; conditions: for EC50: Akt (Serine 473) phosphorylation, neonatal rat cardiomyocytes, 15 minutes treatment, read-out: Cardiomyocyte (CM) (ErbB4) Avg EC50; for Selectivity SC/CM: ratio of EC50s Schwann cells/cardiomyocytes; for CM % Agonism AVG: top value of the Akt phosphorylation data points in cardiomyocytes, wild-type control 100
T1 construct: forming the ErbB2/ErbB4 complex in cardiomyocytes and the ErbB2/ErbB3 complex in Schwann cells; endogenous in cells; host or cells: primary neonatal rat cardiomyocytes (Sprague Dawley pups, 0 to 4 days old)
Method: (§1) In Vitro Phosphorylation of Akt in Neonatal Rat Cardiomyocytes and Rat Schwann Cells by Neuregulin Variants
(§2) Specificity of neuregulin variants towards cardiomyocytes (ErbB4) versus Schwann cells (ErbB3) was tested by measuring Akt activity generated by formation of the ErbB2/ErbB4 and ErbB2/ErbB3 complexes. Upon activation by neuregulin, the ErbB4 and ErbB3 receptors dimerize preferentially with the ErbB2 co-receptor, forming the ErbB2/ErbB4 complex in cardiomyocytes and the ErbB2/ErbB3 complex in Schwann cells, both of which signal through the Akt pathway. Neonatal rat cardiomyocytes were isolated from hearts of Sprague Dawley rat pups at 0 to 4 days old according to manufacturer's protocol using the Neomyt kit and plated on Surecoat plates in NS media containing serum (all from Cellultron Life Technologies, Baltimore, MD). Rat Schwann cells were plated in Poly-D-Lysine coated plates with Dulbecco's modified Eagle's media (DMEM) supplemented with fetal bovine serum (Thermo Fisher) and forskolin (Millipore Sigma).
(§3) After a 24-hour incubation in a humidified incubator maintained at 37° C. and 5% CO2, cardiomyocytes and Schwann cells were washed with serum free media and incubated an additional 16 hours in DMEM supplemented with bovine serum albumin (Sigma). Both cell lines were then treated with titrations of the neuregulin variant molecules for 15 minutes, upon which cells were lysed in lysis buffer (Meso Scale Discovery (MSD)). For detection of Akt phosphorylation, lysates were added to the Multi-Spot 96-Well 4-Spot Phospho (Serine 473)/Total Akt plates (MSD), incubated according to the manufacturer's protocol and read in the SECTOR Imager 6000 (MSD). For both cell assays, the percent phosphorylation of Akt was calculated by multiplying the phospho Akt signal by 2, then dividing by the phospho Akt signal added to the total Akt signal and then multiplying by 100. The phosphorylation of Akt data points were fitted using a log (agonist) versus response, variable slope (4 parameters) analysis in GraphPad Prism to generate EC50 curves. The CM % agonism reflect the top value of the data points.

ErbB3 = biological target: T2, ErbB3 (Rattus norvegicus, UniProt Q62799); assay: In vitro phosphorylation of Akt in rat Schwann cells; format: cell-based; conditions: Akt (Serine 473) phosphorylation, 15 minutes treatment, read-out: Schwann cells (SC) (ErbB3) Avg EC50
T2 construct: forming the ErbB2/ErbB4 complex in cardiomyocytes and the ErbB2/ErbB3 complex in Schwann cells; endogenous in cells; host or cells: rat Schwann cells
Method: as §1, §2, §3

T2 sequence (Q62799 20-1339): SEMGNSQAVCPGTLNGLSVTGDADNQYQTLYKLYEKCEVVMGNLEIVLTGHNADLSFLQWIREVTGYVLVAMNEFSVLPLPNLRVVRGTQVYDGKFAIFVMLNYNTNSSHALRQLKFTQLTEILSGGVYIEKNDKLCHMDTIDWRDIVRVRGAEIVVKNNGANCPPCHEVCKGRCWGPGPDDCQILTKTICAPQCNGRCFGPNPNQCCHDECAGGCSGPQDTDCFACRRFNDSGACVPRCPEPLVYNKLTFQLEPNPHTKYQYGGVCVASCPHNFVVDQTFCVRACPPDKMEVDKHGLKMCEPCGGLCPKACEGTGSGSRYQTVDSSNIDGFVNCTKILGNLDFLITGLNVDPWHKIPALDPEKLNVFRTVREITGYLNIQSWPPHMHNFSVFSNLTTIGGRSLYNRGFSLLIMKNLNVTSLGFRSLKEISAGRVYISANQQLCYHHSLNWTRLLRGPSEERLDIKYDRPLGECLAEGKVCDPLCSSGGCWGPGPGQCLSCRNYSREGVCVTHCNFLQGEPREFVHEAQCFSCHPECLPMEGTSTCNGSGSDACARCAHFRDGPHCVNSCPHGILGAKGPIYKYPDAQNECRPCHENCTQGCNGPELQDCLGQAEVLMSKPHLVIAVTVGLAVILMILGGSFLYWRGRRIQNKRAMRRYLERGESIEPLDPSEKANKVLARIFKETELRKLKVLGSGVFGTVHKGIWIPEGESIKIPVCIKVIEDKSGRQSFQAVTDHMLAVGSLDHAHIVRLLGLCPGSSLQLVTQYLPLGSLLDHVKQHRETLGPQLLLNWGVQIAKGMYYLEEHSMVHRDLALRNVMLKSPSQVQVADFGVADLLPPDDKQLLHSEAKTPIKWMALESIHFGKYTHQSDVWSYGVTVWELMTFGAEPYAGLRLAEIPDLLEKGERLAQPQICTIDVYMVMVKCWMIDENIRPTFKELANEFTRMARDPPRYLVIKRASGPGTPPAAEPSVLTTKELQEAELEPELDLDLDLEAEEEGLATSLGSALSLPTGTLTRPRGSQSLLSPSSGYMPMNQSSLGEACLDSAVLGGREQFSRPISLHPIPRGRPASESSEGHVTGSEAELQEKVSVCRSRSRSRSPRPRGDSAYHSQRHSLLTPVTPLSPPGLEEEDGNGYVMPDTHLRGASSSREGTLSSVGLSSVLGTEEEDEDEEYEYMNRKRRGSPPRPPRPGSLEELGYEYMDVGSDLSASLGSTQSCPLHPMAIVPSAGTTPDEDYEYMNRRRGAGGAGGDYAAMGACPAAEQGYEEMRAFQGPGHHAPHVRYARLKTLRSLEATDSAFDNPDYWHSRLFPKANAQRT
T2 sequence (P06494 23-1257 partner): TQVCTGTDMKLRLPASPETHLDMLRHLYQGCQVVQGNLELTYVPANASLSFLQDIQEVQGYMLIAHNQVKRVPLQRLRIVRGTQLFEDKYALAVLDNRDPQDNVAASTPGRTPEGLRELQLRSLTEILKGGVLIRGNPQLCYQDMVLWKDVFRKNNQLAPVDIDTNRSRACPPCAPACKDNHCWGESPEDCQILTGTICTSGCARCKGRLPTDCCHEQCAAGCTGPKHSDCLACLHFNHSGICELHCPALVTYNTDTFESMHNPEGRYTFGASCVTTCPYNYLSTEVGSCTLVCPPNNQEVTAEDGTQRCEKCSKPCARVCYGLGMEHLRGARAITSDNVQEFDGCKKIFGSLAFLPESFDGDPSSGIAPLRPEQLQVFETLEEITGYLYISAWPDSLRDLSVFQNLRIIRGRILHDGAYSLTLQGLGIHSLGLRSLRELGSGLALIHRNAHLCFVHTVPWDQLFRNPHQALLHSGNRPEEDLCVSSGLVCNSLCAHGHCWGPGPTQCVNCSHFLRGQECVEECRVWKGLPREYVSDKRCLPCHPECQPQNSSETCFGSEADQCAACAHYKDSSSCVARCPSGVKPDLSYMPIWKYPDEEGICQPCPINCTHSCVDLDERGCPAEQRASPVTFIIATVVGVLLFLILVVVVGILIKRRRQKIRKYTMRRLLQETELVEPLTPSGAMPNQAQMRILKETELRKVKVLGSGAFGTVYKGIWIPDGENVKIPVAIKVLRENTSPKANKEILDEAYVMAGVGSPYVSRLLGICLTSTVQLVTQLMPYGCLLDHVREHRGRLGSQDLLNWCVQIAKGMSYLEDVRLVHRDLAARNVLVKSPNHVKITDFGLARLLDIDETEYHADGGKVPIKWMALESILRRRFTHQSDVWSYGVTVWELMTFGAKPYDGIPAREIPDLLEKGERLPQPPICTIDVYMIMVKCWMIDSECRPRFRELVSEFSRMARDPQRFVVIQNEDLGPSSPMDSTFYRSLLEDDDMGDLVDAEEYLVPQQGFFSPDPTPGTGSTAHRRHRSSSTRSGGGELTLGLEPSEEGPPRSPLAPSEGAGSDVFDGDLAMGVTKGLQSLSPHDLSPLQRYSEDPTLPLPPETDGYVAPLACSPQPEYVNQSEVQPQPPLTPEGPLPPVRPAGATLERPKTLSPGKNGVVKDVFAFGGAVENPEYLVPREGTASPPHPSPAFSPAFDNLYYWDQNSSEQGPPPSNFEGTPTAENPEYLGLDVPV
T1 sequence (Q62956 26-1308): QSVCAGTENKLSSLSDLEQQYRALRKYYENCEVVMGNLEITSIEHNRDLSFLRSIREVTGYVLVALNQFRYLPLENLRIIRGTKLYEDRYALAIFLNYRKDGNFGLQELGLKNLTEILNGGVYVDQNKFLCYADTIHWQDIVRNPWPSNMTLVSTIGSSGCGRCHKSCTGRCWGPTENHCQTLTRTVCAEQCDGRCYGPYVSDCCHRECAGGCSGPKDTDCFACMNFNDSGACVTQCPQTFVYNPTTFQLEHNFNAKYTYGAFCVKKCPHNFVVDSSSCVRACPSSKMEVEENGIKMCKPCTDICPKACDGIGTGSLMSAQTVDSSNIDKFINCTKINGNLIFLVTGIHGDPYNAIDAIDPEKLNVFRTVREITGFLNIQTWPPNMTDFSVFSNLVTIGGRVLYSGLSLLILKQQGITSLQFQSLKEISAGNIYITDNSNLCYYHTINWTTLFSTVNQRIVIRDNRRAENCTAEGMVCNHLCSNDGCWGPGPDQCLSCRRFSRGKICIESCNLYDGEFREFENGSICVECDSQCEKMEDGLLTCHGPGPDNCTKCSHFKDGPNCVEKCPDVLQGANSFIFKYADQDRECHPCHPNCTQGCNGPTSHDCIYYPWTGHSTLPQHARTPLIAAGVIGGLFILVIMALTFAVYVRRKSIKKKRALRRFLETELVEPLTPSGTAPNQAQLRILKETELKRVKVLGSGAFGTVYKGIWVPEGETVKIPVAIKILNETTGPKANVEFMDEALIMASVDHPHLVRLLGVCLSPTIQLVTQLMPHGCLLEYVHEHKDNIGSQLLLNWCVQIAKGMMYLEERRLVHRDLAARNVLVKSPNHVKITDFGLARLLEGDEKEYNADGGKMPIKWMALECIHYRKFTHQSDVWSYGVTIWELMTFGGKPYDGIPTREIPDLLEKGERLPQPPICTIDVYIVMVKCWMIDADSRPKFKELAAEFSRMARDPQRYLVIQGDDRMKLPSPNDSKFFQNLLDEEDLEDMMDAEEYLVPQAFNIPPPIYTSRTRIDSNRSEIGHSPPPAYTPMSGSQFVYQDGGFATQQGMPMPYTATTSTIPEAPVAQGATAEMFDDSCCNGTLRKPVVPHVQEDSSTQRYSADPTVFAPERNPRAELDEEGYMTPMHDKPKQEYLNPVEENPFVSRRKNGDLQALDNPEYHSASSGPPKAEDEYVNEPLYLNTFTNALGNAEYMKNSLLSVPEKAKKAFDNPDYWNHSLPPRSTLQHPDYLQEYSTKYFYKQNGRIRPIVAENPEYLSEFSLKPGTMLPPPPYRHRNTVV
T1 sequence (P06494 23-1257 partner): as the sequence (P06494 23-1257 partner) above

Row | EC50 (ErbB4) [nM] | Selectivity SC/CM (ErbB4) | EC50 (ErbB3) [nM] | CM % Agonism AVG (ErbB4) | Molecule
1 | 1.4 | 2147 | 3000 |  | huNRG1(S177-Q237)(3B8)::GG::huFcSEFL2 (Pb): Fc fusion of NRG1 variant SEQ ID NO:160 (protein, huNRG1(S177-Q237)(3B8)::GG::huFcSEFL2 (Pb)) SHLVKCGERDKSFCVNGGECFMVERSSIPSRYLCKCPNEFTGDRCQDFFLASFYKAEELYQGG[letters of human IgG1 Fc with R292C N297G V302C (EU numbers) not shown]
2 | 0.244 | 826 | 202 | Full | huNRG1(S177-Q237)(2F2)::GG::huFcSEFL2 (Pb): Fc fusion of NRG1 variant SEQ ID NO:155 (protein, huNRG1(S177-Q237)(2F2)::GG::huFcSEFL2 (Pb)) SHLVKCAESEKTFCVNGGECYMIEHPSNPSRFLCKCPNEFTGDRCQNVFMASFYKAEELYQGG[letters of human IgG1 Fc with R292C N297G V302C (EU numbers) not shown]
3 | 0.581 | >10000 | > 10000 | Full | huNRG1(S177-Q237)(3G9)::GG::huFcSEFL2 (Pb): Fc fusion of NRG1 variant SEQ ID NO:167 (protein, huNRG1(S177-Q237)(3G9)::GG::huFcSEFL2 (Pb)) SHLVKCGESHKSFCVNGGECFMVEDLSNPSRFLCKCPNEFTGDRCQKDFMASFYKAEELYQGG[letters of human IgG1 Fc with R292C N297G V302C (EU numbers) not shown]
4 | 0.35 | >10000 | > 10000 | Full | huNRG1(S177-Q237)(3E6)::GG::huFcSEFL2 (Pb): Fc fusion of NRG1 variant SEQ ID NO:163 (protein, huNRG1(S177-Q237)(3E6)::GG::huFcSEFL2 (Pb)) SHLVKCAEKHKSFCVNGGECYVIEGSSIPSRFLCKCPNEFTGDRCQKDFMASFYKAEELYQGG[letters of human IgG1 Fc with R292C N297G V302C (EU numbers) not shown]
5 | 0.3 | 368 | 110 |  | huNRG1(S177-Q237)(2H7)::GG::huFcSEFL2 (Pb): Fc fusion of NRG1 variant SEQ ID NO:158 (protein, huNRG1(S177-Q237)(2H7)::GG::huFcSEFL2 (Pb)) SHLVKCGEKEKSFCVNGGECYVVEDLSIPSRFLCKCPNEFTGDRCQKVVMASFYKAEELYQGG[letters of human IgG1 Fc with R292C N297G V302C (EU numbers) not shown]

The next lines start with the molecule.

Row | Molecule | EC50 (ErbB4) [nM] | Selectivity SC/CM (ErbB4) | EC50 (ErbB3) [nM] | CM % Agonism AVG (ErbB4)
6 | huNRG1(S177-F229)(NRGE1C): (G4A)2:G4::huFcSEFL2 (Pb): Fc fusion of NRG1 variant SEQ ID NO:117 (protein, huNRG1(S177-F229)(NRGE1C)::(G4A)2G4::huFcSEFL2 (Pb)) SHLVKCGEKHKSFCVNGGECFMIEGPSNPSRYLCKCPNEFTGDRCQEDFMASFGGGGAGGGGAGGGG[letters of human IgG1 Fc with R292C N297G V302C (EU numbers) not shown] | 0.49 | >10000 | > 10000 | 82.7%
7 | huNRG1(S177-Q237)(3D6)::GG::huFcSEFL2 (Pb): Fc fusion of NRG1 variant SEQ ID NO:161 (protein, huNRG1(S177-Q237)(3D6)::GG::huFcSEFL2 (Pb)) SHLVKCGESDKSFCVNGGECFVIEGSSIPSRFLCKCPNEFTGDRCQDFFMASFYKAEELYQGG[letters of human IgG1 Fc with R292C N297G V302C (EU numbers) not shown] | 2.6 | >3800 | > 10000 | 
8 | huNRG1(S177-Q237)(2G3)::GG::huFcSEFL2 (Pb): Fc fusion of NRG1 variant SEQ ID NO:156 (protein, huNRG1(S177-Q237)(2G3)::GG::huFcSEFL2 (Pb)) SHLVKCGERQKSFCVNGGECYMVEDLSIPSRYLCKCPNEFTGDRCQKVFMASFYKAEELYQGG[letters of human IgG1 Fc with R292C N297G V302C (EU numbers) not shown] | 0.208 | 292 | 60.8 | Full
9 | huNRG1(S177-Q237)(3E9)::GG::huFcSEFL2 (Pb): Fc fusion of NRG1 variant SEQ ID NO:164 (protein, huNRG1(S177-Q237)(3F2)::GG::huFcSEFL2 (Pb)) SHLVKCAENHKTFCVNGGECFVIEGSSNPSRYLCKCPNEFTGDRCQDVFLASFYKAEELYQGG[letters of human IgG1 Fc with R292C N297G V302C (EU numbers) not shown] | 2.68 | >8500 | > 3000 | 
10 | huNRG1(S177-Q237)(3F2)::GG::huFcSEFL2 (Pb): Fc fusion of NRG1 variant SEQ ID NO:165 (protein, huNRG1(S177-Q237)(3F2)::GG::huFcSEFL2 (Pb)) SHLVKCGESHKSFCVNGGECFMIEGPSNPSRYLCKCPNEFTGDRCQDDFMASFYKAEELYQGG[letters of human IgG1 Fc with R292C N297G V302C (EU numbers) not shown] | 0.738 | >10000 | > 10000 | 
11 | huNRG1(S177-Q237)(3D8)::GG::huFcSEFL2 (Pb): Fc fusion of NRG1 variant SEQ ID NO:162 (protein, huNRG1(S177-Q237)(3E6)::GG::huFcSEFL2 (Pb)) SHLVKCGEKDKTFCVNGGECFMVEDLSIPSRFLCKCPNEFTGDRCQDFFMASFYKAEELYQGG[letters of human IgG1 Fc with R292C N297G V302C (EU numbers) not shown] | 0.51 | >5800 | > 3000 | 
12 | huNRG1(S177-Q237)(2G4)::GG::huFcSEFL2 (Pb): Fc fusion of NRG1 variant SEQ ID NO:157 (protein, huNRG1(S177-Q237)(2G4)::GG::huFcSEFL2 (Pb)) SHLVKCAENEKTFCVNGGECFVVEGLSIPSRYLCKCPNEFTGDRCQDVFMASFYKAEELYQGG[letters of human IgG1 Fc with R292C N297G V302C (EU numbers) not shown] | 2.42 | 414 | 1000 | 
13 | huNRG1(S177-Q237)(3G3)::GG::huFcSEFL2 (Pb): Fc fusion of NRG1 variant SEQ ID NO:166 (protein, huNRG1(S177-Q237)(3G3)::GG::huFcSEFL2 (Pb)) SHLVKCGEREKTFCVNGGECFMIEHLSIPSRFLCKCPNEFTGDRCQEDFMASFYKAEELYQGG[letters of human IgG1 Fc with R292C N297G V302C (EU numbers) not shown] | 1.84 | >5400 | > 10000 | 
14 | huNRG1(S177-Q237)(3A7)::GG::huFcSEFL2 (Pb): Fc fusion of NRG1 variant SEQ ID NO:159 (protein, huNRG1(S177-Q237)(3A7)::GG::huFcSEFL2 (Pb)) SHLVKCAEKEKSFCVNGGECFVIEGSSIPSRFLCKCPNEFTGDRCQKVVMASFYKAEELYQGG[letters of human IgG1 Fc with R292C N297G V302C (EU numbers) not shown] | 0.366 | 127 | 46.5 | 
